Laboratory results taken from paper PMC6919601, “Identification of Plasmodium dipeptidyl aminopeptidase allosteric inhibitors by high throughput screening” (PLoS ONE, 2019).
The whole screen tested about 110,000 compounds, of which about 230 (0.21%) showed an effect of 50% or more. The list shows a part of the results.

molecular target: DPAP1 (Plasmodium falciparum, UniProt Q8IIJ9); assay: primary screen, percent inhibition; read by cleavage of a fluorogenic dipeptide substrate; higher = more effect of the substance; design: species or system P. falciparum D10 trophozoite lysates; single well
Sequence (Q8IIJ9 whole entry, looked up): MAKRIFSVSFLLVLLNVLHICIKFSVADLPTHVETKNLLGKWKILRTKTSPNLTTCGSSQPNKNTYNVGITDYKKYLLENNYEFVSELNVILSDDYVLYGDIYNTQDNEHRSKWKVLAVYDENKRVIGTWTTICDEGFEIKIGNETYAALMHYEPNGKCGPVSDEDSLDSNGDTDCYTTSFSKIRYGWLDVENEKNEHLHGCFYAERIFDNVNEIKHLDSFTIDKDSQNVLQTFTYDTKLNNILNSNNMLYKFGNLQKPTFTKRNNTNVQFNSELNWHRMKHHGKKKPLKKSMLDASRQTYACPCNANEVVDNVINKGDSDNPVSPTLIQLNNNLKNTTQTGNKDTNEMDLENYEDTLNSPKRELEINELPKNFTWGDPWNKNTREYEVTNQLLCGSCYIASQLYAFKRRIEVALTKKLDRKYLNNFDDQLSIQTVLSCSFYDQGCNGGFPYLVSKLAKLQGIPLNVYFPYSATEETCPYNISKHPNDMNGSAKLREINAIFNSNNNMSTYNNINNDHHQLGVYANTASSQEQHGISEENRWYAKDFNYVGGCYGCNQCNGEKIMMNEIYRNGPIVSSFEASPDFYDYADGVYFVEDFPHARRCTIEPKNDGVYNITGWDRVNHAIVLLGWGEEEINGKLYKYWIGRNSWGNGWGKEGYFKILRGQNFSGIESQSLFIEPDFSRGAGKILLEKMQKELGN
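Also: 30 min substrate incubation versus DMSO and 10 µM JCP410 controls.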

Row | SMILES | % Inhibition @ 10 uM [%]
1 | CS(=O)(=O)c1ccc(-c2nnn(CC(=O)NCc3ccc(F)cc3)n2)cc1 | -3.07
2 | O=C(CCc1ccccc1)Nc1ccccc1NC(=O)CCc1ccccc1 | 4.57
3 | O=C(Nc1ccc(NC(=O)c2ccc(Cl)cc2Cl)cc1)c1ccccc1F | 0.177
4 | COc1ccccc1Nc1cccc2nonc12 | -0.996
5 | CCOC(=O)c1c(NC(=O)C2=C(C)N=C3CCCC(O)=C3C2c2cccnc2)sc2c1CCCC2 (centres unmarked) | 5.76
6 | Cc1sc(NC(=O)c2cccnc2Cl)nc1-c1ccccc1 | 20.2
7 | CC1=CC(C)(C)N(C(=O)c2ccc([N+](=O)[O-])cc2)c2ccccc21 | -2.42
8 | Cc1nnc(NC(=O)CSc2nnc(-c3ccco3)c(-c3ccco3)n2)s1 | -0.386
9 | COc1cccc(C(O)c2cnc(C(C)C)n2C)c1OC (centres unmarked) | -3.32
10 | COc1ccc(CN2C(=O)CS/C2=N/N=C/c2cccs2)cc1 | 0.279
11 | CC(C)NC(=O)C1CCN(c2cnccn2)CC1 | -0.946
12 | C=CC1CCC(O)C(N(Cc2ccccc2)S(=O)(=O)c2ccc3ccccc3c2)C1 (centres unmarked) | 0.906
13 | CCOCCCNC(=O)C1CCN(c2nnc(C)c3c(C)n(-c4ccc(C)cc4)nc23)CC1 | 4.4
14 | CCCCSc1nnc(-c2ccc(Br)cc2)o1 | 11.7
15 | CCc1ccc(N2C(=O)C(Cl)=C(Nc3ccccc3OC)C2=O)cc1 | -2.88
16 | NC(=O)c1ccccc1NC(=O)C1CC=CCC1C(=O)O (centres unmarked) | 1.15
17 | COc1ccc(-c2cc(-c3ccccc3)nc(SCC(N)=O)c2C#N)cc1 | 3.06
18 | Cc1nc2c(c(C)nn2-c2ccccc2)c(C)c1CCC(=O)NC(C)c1ccc2c(c1)OCCO2 (centres unmarked) | 4.14
19 | Cc1c(CN2CCC(O)(c3ccc(Br)cc3)CC2)c(=O)n(-c2ccccc2)n1C | -1.21
20 | O=C(O)c1cccc(-c2ccc(Cl)cc2)c1C(=O)O | -7.35
21 | O=C(NCc1ccc2c(c1)OCO2)C1CCC(CNS(=O)(=O)c2ccccc2)CC1 (centres unmarked) | -2.72
22 | Cc1ccc(CNC(=O)C2COc3ccccc3O2)cc1 (centres unmarked) | 1.62
23 | CC(O)c1nc2cc([N+](=O)[O-])ccc2n1C (centres unmarked) | -7.15
24 | CCOc1ccc(NC(=O)c2ccc(OC(F)F)cc2)cc1 | -7.56
25 | CCOC(=O)C1=C(CC)OC(N)=C(C#N)C12C(=O)Nc1ccc(Br)cc12 (centres unmarked) | 0.467

Row | SMILES | % Inhibition @ 10 uM [%]
26 | O=C(CNS(=O)(=O)c1ccc(C(=O)N2CCCCC2)cc1)N1CCCCC1 | 2.25
27 | CCN1C(=O)/C(=C\c2cc(C)n(-c3cc(C)ccc3OC)c2C)C(C(=O)OC)=C1C | 4.85
28 | O=C(COc1ccccc1)NCc1nnc(S)n1-c1cccc(C(F)(F)F)c1 | 4.95
29 | COc1ccc(S(=O)(=O)N(Cc2ccccc2)Cc2ccccc2)cc1OC | 3.66
30 | NS(=O)(=O)c1ccc(C2(O)C=Nc3ccccc32)cc1 (centres unmarked) | -2.78
31 | CSCCC(C(=O)Nc1cccc(Cl)c1)N1C(=O)c2ccccc2C1=O (centres unmarked) | -4.76
32 | CCOC(=O)c1c(S(=O)(=O)Nc2ccc(C)cn2)c(C)n(C)c1C | -2.9
33 | O=c1c(Cl)c(NC2CCCCCC2)cnn1C12CC3CC(CC(C3)C1)C2 | -5.29
34 | O=C(Nc1ccc(Cl)c([N+](=O)[O-])c1)c1cccs1 | -1.62
35 | Cn1c(=O)c2c(nc(NCc3ccco3)n2Cc2ccccc2Br)n(C)c1=O | -3.05
36 | COc1cc(/C=C2\SC(=O)N(Cc3ccc(F)cc3)C2=O)cc(Br)c1OC | -1.6
37 | COc1ccc(-c2ccccc2)cc1NCc1ccc(C)s1 | -0.603
38 | COc1ccc(CNc2nc(-c3ccco3)nn2C(=O)CCc2ccccc2)cc1 | -1.47
39 | CC[n+]1ccc(C2C(C#N)=C(N)OC(C)=C2C(=O)O)cc1 (centres unmarked) | -3.77
40 | COc1ccc(N2CCN(C(=O)c3cc(C)on3)CC2)cc1 | 1.39
41 | CC1(C)CC(=O)C2=C(C1)c1c(ccc3ccccc13)NC2c1ccc2c(c1)OCO2 (centres unmarked) | 13.8
42 | Cc1ccc(C(=O)Nc2cccc(Cl)c2Cl)cc1[N+](=O)[O-] | 3.03
43 | CCCC(=O)N1CCN(c2ccc([N+](=O)[O-])cc2F)CC1 | 0.392
44 | c1ccc(CCN(Cc2ccccc2)Cc2ccncc2)cc1 | -2.95
45 | CCC1CCCCN1S(=O)(=O)c1ccc(NC(=O)COc2c(C)cccc2C)cc1 (centres unmarked) | -1.52
46 | COc1ccc2c(CNCC3CCCO3)c(C(=O)O)n(Cc3ccc(F)cc3Cl)c2c1 (centres unmarked) | 7.19
47 | Cc1ccc(Cl)c(OCC(O)CN(CCO)CCO)c1 (centres unmarked) | -10.1
48 | c1csc(-c2csc(Cc3nc(-c4cccs4)cs3)n2)c1 | 3.27
49 | N#C/C(=C/c1cccc(Cl)c1)c1nc(-c2ccccc2)cs1 | 5.85
50 | CCC(C)c1ccc(NS(=O)(=O)c2ccc(OC)cc2)cc1 (centres unmarked) | 2.22
